Values of other authors as cited in patent US10072252B2 (priority 2013, dated 2018).

Target: Sulfolobus solfataricus SsoPox, wild type (wt), SEQ ID NO: 3 (Saccharolobus solfataricus, UniProt Q97VT7)
Parameters: made in house; host or cells: E. coli BL21(DE3)-pGro7/GroEL
Details: Table 4; cited from earlier work

Sulfolobus solfataricus SsoPox, wild type (wt), SEQ ID NO: 3, sequence (Q97VT7 whole entry): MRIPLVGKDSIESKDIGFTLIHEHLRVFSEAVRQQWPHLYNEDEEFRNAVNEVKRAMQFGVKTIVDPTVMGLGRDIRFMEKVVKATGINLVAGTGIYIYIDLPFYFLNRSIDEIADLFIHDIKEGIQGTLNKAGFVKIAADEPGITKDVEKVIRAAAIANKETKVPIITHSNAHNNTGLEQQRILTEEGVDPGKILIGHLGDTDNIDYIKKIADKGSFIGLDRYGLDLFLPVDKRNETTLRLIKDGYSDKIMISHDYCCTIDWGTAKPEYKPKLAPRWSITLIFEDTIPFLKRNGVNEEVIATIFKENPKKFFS

Q: With `CCOP(=S)(OCC)Oc1ccc([N+](=O)[O-])cc1` [Ethyl-Parathion, ethyl-parathion] as the compound, how does the “Catalytic activity (not detected)” value read?
A: The value was “ND (not detected)”.
